Assay results published in paper PMC12186615.
These are yes or no findings as the source states them, for the method shown. In cells and extracts the contact can be indirect. Some results given as binding are weak or reduced against the parent protein; the word gives no strength. Sequences can lack the tags named with a protein. Values belong to the molecule of their own block, whether it stands above or below them.

Amino acid sequences for entries named in this document (tags omitted).
UniProt Q80WT2: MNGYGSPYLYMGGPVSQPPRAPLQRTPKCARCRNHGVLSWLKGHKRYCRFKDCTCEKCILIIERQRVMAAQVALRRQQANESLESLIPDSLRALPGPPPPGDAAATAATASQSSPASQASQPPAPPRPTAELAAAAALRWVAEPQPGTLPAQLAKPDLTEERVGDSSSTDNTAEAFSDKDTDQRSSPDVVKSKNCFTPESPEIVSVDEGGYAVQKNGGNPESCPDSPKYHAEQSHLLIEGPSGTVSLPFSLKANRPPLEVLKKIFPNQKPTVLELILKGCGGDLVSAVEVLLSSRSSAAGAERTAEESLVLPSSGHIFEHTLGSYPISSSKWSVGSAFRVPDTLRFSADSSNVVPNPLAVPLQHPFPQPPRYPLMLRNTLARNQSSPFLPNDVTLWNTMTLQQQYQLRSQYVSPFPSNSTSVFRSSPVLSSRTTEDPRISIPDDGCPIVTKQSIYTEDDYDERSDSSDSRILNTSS
UniProt Q13547: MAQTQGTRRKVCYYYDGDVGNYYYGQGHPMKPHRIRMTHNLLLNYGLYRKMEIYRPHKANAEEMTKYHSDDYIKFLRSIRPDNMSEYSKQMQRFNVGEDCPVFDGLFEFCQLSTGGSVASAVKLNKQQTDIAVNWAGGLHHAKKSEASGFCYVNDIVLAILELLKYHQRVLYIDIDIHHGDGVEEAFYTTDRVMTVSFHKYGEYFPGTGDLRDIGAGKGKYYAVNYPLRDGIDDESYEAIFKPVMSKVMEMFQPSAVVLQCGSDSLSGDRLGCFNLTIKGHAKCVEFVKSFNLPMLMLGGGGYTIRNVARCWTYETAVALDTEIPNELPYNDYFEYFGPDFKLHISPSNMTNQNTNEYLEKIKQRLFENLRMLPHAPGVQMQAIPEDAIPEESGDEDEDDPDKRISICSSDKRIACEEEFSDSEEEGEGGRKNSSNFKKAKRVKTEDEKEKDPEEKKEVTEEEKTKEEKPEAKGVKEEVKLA
UniProt Q92769: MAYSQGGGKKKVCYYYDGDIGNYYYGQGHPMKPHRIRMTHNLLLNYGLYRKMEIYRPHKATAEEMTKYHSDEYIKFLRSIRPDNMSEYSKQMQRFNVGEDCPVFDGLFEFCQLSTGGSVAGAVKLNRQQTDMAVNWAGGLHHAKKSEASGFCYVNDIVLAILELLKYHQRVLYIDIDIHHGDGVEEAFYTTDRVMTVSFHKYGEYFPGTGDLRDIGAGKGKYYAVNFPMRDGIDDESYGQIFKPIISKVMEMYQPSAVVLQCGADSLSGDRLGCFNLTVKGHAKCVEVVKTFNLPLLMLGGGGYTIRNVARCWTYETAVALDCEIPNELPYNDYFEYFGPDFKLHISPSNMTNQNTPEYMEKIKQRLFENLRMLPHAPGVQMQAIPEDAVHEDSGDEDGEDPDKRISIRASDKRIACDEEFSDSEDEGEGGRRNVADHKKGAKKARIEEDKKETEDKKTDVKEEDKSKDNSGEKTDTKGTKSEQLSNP

Assays:
[1] = target: T1, Zfp423 (pCDNA3-Myc-Zfp423) overexpressed in HEK293T cells (mouse) (UniProt Q80TS5); experiment: co-IP; transfected HEK293T cells lysed in IPH buffer (20 mM Tris-HCl pH 7.5, 150 mM NaCl, 2 mM EDTA, 1% NP-40); 1 mg lysate with antibody overnight at 4°C, protein G magnetic beads, four washes, Western blot; Flag-Dmrta2 alone or with increasing doses of Zfp423
T1 sequence: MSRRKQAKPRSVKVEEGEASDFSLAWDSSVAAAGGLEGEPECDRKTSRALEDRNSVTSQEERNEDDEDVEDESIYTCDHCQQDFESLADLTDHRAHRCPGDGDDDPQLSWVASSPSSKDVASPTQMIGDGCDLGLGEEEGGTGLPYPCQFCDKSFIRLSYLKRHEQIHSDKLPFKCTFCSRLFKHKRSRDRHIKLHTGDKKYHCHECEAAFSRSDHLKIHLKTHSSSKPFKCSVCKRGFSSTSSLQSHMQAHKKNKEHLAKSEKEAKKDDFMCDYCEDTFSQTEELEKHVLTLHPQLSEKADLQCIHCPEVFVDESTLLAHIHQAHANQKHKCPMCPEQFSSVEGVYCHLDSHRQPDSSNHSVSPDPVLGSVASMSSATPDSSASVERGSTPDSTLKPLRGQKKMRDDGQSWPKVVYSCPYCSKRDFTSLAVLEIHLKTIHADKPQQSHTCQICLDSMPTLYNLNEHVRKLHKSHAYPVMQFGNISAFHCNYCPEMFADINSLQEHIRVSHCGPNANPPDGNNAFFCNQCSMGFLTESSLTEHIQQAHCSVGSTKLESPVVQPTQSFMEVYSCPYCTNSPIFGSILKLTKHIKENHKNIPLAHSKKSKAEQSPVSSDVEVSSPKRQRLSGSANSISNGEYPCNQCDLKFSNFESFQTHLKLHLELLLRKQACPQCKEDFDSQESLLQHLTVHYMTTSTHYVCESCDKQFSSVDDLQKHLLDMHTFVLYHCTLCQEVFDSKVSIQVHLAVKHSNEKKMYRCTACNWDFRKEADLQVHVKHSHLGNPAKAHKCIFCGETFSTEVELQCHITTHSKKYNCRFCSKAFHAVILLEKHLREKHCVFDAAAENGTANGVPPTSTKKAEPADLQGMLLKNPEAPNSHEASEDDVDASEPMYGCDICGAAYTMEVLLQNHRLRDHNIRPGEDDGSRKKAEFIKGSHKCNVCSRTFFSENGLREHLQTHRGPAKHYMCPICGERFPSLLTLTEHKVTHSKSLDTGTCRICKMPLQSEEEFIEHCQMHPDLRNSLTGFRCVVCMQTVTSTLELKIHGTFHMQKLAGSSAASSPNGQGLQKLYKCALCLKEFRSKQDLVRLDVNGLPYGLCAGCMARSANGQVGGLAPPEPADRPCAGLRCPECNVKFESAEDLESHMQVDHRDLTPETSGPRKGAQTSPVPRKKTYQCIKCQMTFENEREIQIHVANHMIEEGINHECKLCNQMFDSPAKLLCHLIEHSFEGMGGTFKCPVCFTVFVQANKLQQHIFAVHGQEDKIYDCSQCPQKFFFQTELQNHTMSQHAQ

[2] = target: Flag-Dmrta2 (pCS2-Flag-mDmrta2) (mouse) (UniProt A2A9A2); experiment: as above
[3] = target: T2, Flag-Dmrta2ΔDM (pCS2 Flag mDmrta2ΔDM) (mouse) (UniProt A2A9A2); experiment: as above
T2 sequence: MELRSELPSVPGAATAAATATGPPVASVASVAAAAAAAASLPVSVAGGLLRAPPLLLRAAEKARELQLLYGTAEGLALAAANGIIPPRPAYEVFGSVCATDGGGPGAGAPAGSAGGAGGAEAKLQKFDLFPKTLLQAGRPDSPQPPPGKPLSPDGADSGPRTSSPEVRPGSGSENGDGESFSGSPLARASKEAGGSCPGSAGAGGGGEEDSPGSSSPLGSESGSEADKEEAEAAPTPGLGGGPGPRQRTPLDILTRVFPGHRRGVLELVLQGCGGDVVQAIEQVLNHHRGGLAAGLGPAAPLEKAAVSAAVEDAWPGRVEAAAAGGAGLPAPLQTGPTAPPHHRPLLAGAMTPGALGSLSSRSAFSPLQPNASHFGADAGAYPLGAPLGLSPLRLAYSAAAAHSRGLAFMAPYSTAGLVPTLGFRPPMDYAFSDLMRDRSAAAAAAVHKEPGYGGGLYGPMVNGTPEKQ

[4] = target: GST-Dmrt3 (mouse) (UniProt Q80WT2); experiment: pull-down; GST fusion proteins on glutathione-agarose beads incubated with in vitro translated Myc-Zfp423 in 20 mM Tris pH 7.4, 0.1 M NaCl, 1 mM EDTA, 10% glycerol, 0.25% Igepal, 1 mM DTT, 1% milk, 2 h at RT; Western blot; only the target purified
[5] = target: GST-Dmrta2 (mouse) (UniProt A2A9A2); experiment: as above
[6] = target: GST-Dmrta2 DM (mouse) (UniProt A2A9A2); experiment: as above

Molecule: HDAC1 (endogenous, HEK293T) (from UniProt Q13547 1-482) (enzyme)
binding [2]: binds

Molecule: HDAC2 (endogenous, HEK293T) (from UniProt Q92769 1-488) (enzyme)
binding [2]: binds

B2: Full-length mouse Myc-tagged Zfp423 synthesized in vitro (protein, UniProt Q80TS5 1-1292)
chain: MSRRKQAKPRSVKVEEGEASDFSLAWDSSVAAAGGLEGEPECDRKTSRALEDRNSVTSQEERNEDDEDVEDESIYTCDHCQQDFESLADLTDHRAHRCPGDGDDDPQLSWVASSPSSKDVASPTQMIGDGCDLGLGEEEGGTGLPYPCQFCDKSFIRLSYLKRHEQIHSDKLPFKCTFCSRLFKHKRSRDRHIKLHTGDKKYHCHECEAAFSRSDHLKIHLKTHSSSKPFKCSVCKRGFSSTSSLQSHMQAHKKNKEHLAKSEKEAKKDDFMCDYCEDTFSQTEELEKHVLTLHPQLSEKADLQCIHCPEVFVDESTLLAHIHQAHANQKHKCPMCPEQFSSVEGVYCHLDSHRQPDSSNHSVSPDPVLGSVASMSSATPDSSASVERGSTPDSTLKPLRGQKKMRDDGQSWPKVVYSCPYCSKRDFTSLAVLEIHLKTIHADKPQQSHTCQICLDSMPTLYNLNEHVRKLHKSHAYPVMQFGNISAFHCNYCPEMFADINSLQEHIRVSHCGPNANPPDGNNAFFCNQCSMGFLTESSLTEHIQQAHCSVGSTKLESPVVQPTQSFMEVYSCPYCTNSPIFGSILKLTKHIKENHKNIPLAHSKKSKAEQSPVSSDVEVSSPKRQRLSGSANSISNGEYPCNQCDLKFSNFESFQTHLKLHLELLLRKQACPQCKEDFDSQESLLQHLTVHYMTTSTHYVCESCDKQFSSVDDLQKHLLDMHTFVLYHCTLCQEVFDSKVSIQVHLAVKHSNEKKMYRCTACNWDFRKEADLQVHVKHSHLGNPAKAHKCIFCGETFSTEVELQCHITTHSKKYNCRFCSKAFHAVILLEKHLREKHCVFDAAAENGTANGVPPTSTKKAEPADLQGMLLKNPEAPNSHEASEDDVDASEPMYGCDICGAAYTMEVLLQNHRLRDHNIRPGEDDGSRKKAEFIKGSHKCNVCSRTFFSENGLREHLQTHRGPAKHYMCPICGERFPSLLTLTEHKVTHSKSLDTGTCRICKMPLQSEEEFIEHCQMHPDLRNSLTGFRCVVCMQTVTSTLELKIHGTFHMQKLAGSSAASSPNGQGLQKLYKCALCLKEFRSKQDLVRLDVNGLPYGLCAGCMARSANGQVGGLAPPEPADRPCAGLRCPECNVKFESAEDLESHMQVDHRDLTPETSGPRKGAQTSPVPRKKTYQCIKCQMTFENEREIQIHVANHMIEEGINHECKLCNQMFDSPAKLLCHLIEHSFEGMGGTFKCPVCFTVFVQANKLQQHIFAVHGQEDKIYDCSQCPQKFFFQTELQNHTMSQHAQ
binding [4]: binds
binding [5]: binds
binding [6]: binds

Other lines, results leading:

binding [1]: binds
Molecule: Flag-Dmrta2 (pCS2-Flag-mDmrta2) (from UniProt A2A9A2 1-531)

binding [3]: no binding
binding [2]: binds
B1: Zfp423 (pCDNA3-Myc-Zfp423) overexpressed in HEK293T cells (protein, UniProt Q80TS5 1-1292)
chain: MSRRKQAKPRSVKVEEGEASDFSLAWDSSVAAAGGLEGEPECDRKTSRALEDRNSVTSQEERNEDDEDVEDESIYTCDHCQQDFESLADLTDHRAHRCPGDGDDDPQLSWVASSPSSKDVASPTQMIGDGCDLGLGEEEGGTGLPYPCQFCDKSFIRLSYLKRHEQIHSDKLPFKCTFCSRLFKHKRSRDRHIKLHTGDKKYHCHECEAAFSRSDHLKIHLKTHSSSKPFKCSVCKRGFSSTSSLQSHMQAHKKNKEHLAKSEKEAKKDDFMCDYCEDTFSQTEELEKHVLTLHPQLSEKADLQCIHCPEVFVDESTLLAHIHQAHANQKHKCPMCPEQFSSVEGVYCHLDSHRQPDSSNHSVSPDPVLGSVASMSSATPDSSASVERGSTPDSTLKPLRGQKKMRDDGQSWPKVVYSCPYCSKRDFTSLAVLEIHLKTIHADKPQQSHTCQICLDSMPTLYNLNEHVRKLHKSHAYPVMQFGNISAFHCNYCPEMFADINSLQEHIRVSHCGPNANPPDGNNAFFCNQCSMGFLTESSLTEHIQQAHCSVGSTKLESPVVQPTQSFMEVYSCPYCTNSPIFGSILKLTKHIKENHKNIPLAHSKKSKAEQSPVSSDVEVSSPKRQRLSGSANSISNGEYPCNQCDLKFSNFESFQTHLKLHLELLLRKQACPQCKEDFDSQESLLQHLTVHYMTTSTHYVCESCDKQFSSVDDLQKHLLDMHTFVLYHCTLCQEVFDSKVSIQVHLAVKHSNEKKMYRCTACNWDFRKEADLQVHVKHSHLGNPAKAHKCIFCGETFSTEVELQCHITTHSKKYNCRFCSKAFHAVILLEKHLREKHCVFDAAAENGTANGVPPTSTKKAEPADLQGMLLKNPEAPNSHEASEDDVDASEPMYGCDICGAAYTMEVLLQNHRLRDHNIRPGEDDGSRKKAEFIKGSHKCNVCSRTFFSENGLREHLQTHRGPAKHYMCPICGERFPSLLTLTEHKVTHSKSLDTGTCRICKMPLQSEEEFIEHCQMHPDLRNSLTGFRCVVCMQTVTSTLELKIHGTFHMQKLAGSSAASSPNGQGLQKLYKCALCLKEFRSKQDLVRLDVNGLPYGLCAGCMARSANGQVGGLAPPEPADRPCAGLRCPECNVKFESAEDLESHMQVDHRDLTPETSGPRKGAQTSPVPRKKTYQCIKCQMTFENEREIQIHVANHMIEEGINHECKLCNQMFDSPAKLLCHLIEHSFEGMGGTFKCPVCFTVFVQANKLQQHIFAVHGQEDKIYDCSQCPQKFFFQTELQNHTMSQHAQ
